{"source": "PubChem BioAssay AID720708", "about": "(National Center for Advancing Translational Sciences (NCATS), 2013)", "note": "Screen size: about 360,000 compounds; about 660 (0.18%) were called active. The inconclusive results got no clear call from the source; some entries with a clear call stand among them for comparison. Calls come from the whole dose curve; as a rule, active = well fitted inhibition curve with a large enough effect; inconclusive = small, poorly fitted or top-dose-only effect; inactive = no such curve, though single readings can be large or run the other way. Potencies of inconclusive entries are left out as doubtful fits. Potency is the fitted concentration of half-maximal effect; tags give direction and shape of the fitted curve."}
{"biological_target": "Rap guanine nucleotide exchange factor 4 (Homo sapiens) (UniProt Q8WZA2)", "sequence (Q8WZA2 whole entry, looked up)": "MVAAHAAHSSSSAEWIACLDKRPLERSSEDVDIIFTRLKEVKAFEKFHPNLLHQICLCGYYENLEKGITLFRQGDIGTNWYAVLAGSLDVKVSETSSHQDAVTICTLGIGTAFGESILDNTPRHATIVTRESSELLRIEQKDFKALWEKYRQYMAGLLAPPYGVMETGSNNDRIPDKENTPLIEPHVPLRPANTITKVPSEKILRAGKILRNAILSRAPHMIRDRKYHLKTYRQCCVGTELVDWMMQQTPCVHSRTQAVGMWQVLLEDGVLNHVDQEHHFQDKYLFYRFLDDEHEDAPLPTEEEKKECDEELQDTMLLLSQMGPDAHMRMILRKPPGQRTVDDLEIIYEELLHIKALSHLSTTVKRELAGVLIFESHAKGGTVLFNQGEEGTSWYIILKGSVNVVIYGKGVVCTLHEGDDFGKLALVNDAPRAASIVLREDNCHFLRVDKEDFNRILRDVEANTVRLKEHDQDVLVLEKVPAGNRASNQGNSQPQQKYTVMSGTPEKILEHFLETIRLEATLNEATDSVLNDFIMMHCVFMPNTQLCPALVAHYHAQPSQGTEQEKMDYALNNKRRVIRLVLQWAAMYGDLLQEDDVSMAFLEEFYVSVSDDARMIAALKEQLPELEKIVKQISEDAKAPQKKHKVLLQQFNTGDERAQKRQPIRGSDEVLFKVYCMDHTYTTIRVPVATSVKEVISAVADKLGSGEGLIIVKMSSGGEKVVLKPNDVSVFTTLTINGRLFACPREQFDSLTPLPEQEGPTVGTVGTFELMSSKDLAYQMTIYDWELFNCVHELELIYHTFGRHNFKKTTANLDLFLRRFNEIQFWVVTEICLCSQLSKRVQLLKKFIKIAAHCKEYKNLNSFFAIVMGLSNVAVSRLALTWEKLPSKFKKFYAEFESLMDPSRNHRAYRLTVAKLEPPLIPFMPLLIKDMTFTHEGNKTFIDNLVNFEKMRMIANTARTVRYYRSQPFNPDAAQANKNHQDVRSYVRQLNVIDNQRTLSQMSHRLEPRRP", "assay": "qHTS for Antagonist of cAMP-regulated guanine nucleotide exchange factor 2 (EPAC2): primary screen; note: nearly all actives have a fitted effect of over 45% in size", "details": "EPAC2 GEF exchange of Rap1B-BODIPY-GDP, fluorescence; series mostly up to 114 µM"}
{"smiles": "CCC(NC(=O)CCl)c1ccc(C)cc1", "note": "(stereo not given)", "Potency": "inconclusive [inhibitor, partial curve]"}
{"smiles": "O=C(CN1C(=O)S/C(=C\\c2ccc(O)c([N+](=O)[O-])c2)C1=O)Nc1ccc(N2CCOCC2)cc1", "Potency": "inconclusive [inhibitor, full curve]"}
{"smiles": "COc1cc(OC)c2c(c1)OC(=O)CC2c1ccc(C)cc1", "note": "(stereo not given)", "Potency": "inconclusive [inhibitor, full curve]"}
{"smiles": "Cc1ccc(S(=O)(=O)N2[C@@H](c3ccc(C(C)(C)C)cc3)C(C(=O)O)=CC[C@H]2c2ccc(Cl)c(Cl)c2)cc1", "Potency": "inconclusive [inhibitor, full curve]"}
{"smiles": "COc1ccccc1N1CCN(C(=O)c2ccccc2SCC(=O)N2CCCC2)CC1", "Potency": "inactive"}
{"smiles": "O=C(Cc1ccccc1)Nc1ccccc1N1CCN(c2ccccc2)CC1", "Potency": "inactive"}
{"smiles": "CC1=NN(c2nc(-c3ccc(Cl)cc3)cs2)C(=O)C1", "Potency": "inactive"}
{"smiles": "CC(C)(C)CC(C)(C)NC(=O)CSCC(=O)Nc1ccc2ccccc2c1", "Potency": "inconclusive [inhibitor, full curve, poor fit]"}
{"smiles": "Brc1ccc(-c2n(-c3ccccn3)c3ccccc3[n+]2-c2ccccn2)cc1", "Potency": "inconclusive [inhibitor, full curve, poor fit]"}
{"smiles": "COc1ccc(Br)cc1C1=CC(=O)C[C@H](c2ccc(F)cc2)C1", "Potency": "inconclusive [inhibitor, full curve]"}
{"smiles": "CCCNC(=O)CN(C)CC(=O)Nc1ccccc1C#N", "Potency": "inactive"}
{"smiles": "CCC(=O)c1ccccc1OCC(=O)Nc1c(C)cccc1C", "Potency": "inconclusive [inhibitor, partial curve]"}
{"smiles": "CCCSc1nc(C)cc(C)c1S(=O)(=O)c1ccccc1C", "Potency": "active: 10 µM"}
{"smiles": "C=Cc1ccc(Cn2c(C)c(C(=O)NCc3cccc(C)c3)sc2=O)cc1", "Potency": "inconclusive [inhibitor, partial curve]"}
{"smiles": "Cc1ccccc1S(=O)(=O)N1[C@@H](c2ccc(Br)cc2)C(C(=O)O)=CC[C@H]1c1ccc(Cl)cc1", "Potency": "inconclusive [inhibitor, partial curve]"}
{"smiles": "O=C(CN1CCN(C(=O)c2cccc(S(=O)(=O)N3CCCC3)c2)CC1)Nc1cccc(F)c1", "Potency": "inconclusive [inhibitor, single point]"}
{"smiles": "CCc1ccc(-c2csc(NC(=O)C3CCCO3)c2C(=O)OC(C)C)cc1", "note": "(stereo not given)", "Potency": "inconclusive [inhibitor, partial curve]"}
{"smiles": "Clc1nssc1=Nc1ccc(Br)cc1", "Potency": "inactive"}
{"smiles": "COc1cccc(C(C)(O)c2nc(-c3cccc(C(F)(F)F)c3)cs2)c1", "note": "(stereo not given)", "Potency": "inconclusive [inhibitor, partial curve]"}
{"smiles": "Cc1ccc2oc(C(=O)N3CCCCCC3)c(C)c2c1", "Potency": "active: 56.2 µM"}
{"smiles": "CC(=O)C1=C(C)N(Cc2ccccc2)C(=O)N[C@H]1CCc1ccccc1", "Potency": "inconclusive [inhibitor, partial curve]"}
{"smiles": "Cc1cc(-c2ccccc2)nc(Oc2cccc(C(F)(F)F)c2)c1S(C)(=O)=O", "Potency": "inconclusive [inhibitor, full curve, poor fit]"}
{"smiles": "CC1=C(C(=O)OCc2ccccc2)C(c2cccc([N+](=O)[O-])c2)NC(=O)N1C", "note": "(stereo not given)", "Potency": "inconclusive [inhibitor, partial curve]"}
{"smiles": "CC(C)(CNC(=O)CO/N=C1/C=C2CCC3C(C(O)C[C@@]4(C)C3CC[C@]4(O)C(=O)CO)[C@@]2(C)CC1)C(O)C(=O)O", "note": "(stereo not given in full)", "Potency": "inactive"}
{"smiles": "N/C(=N\\S(=O)(=O)c1cc(C(F)(F)F)cc(C(F)(F)F)c1)c1ccc(Cl)cc1", "Potency": "inconclusive [inhibitor, full curve]"}
{"smiles": "O=C(NCC(F)(F)F)c1ccc2sc([C@H]3C[C@H](O)[C@@H](CO)O3)nc2c1", "Potency": "inactive"}
{"smiles": "C[C@@]12C(=O)Nc3ccc(Br)cc3C(=O)N1[C@H]1c3cc(Cl)ccc3OC[C@@H]1[C@@H]2c1ccccc1", "Potency": "inactive"}
{"smiles": "CC(C)(C)n1nc(Cc2cccc3ccccc23)c(C#N)c1N", "Potency": "inconclusive [inhibitor, partial curve]"}
{"smiles": "CCNC(=O)C1(C)CCN(C(=O)c2ccc(C(=O)OC)cc2)C1", "note": "(stereo not given)", "Potency": "inconclusive [inhibitor, single point]"}
{"smiles": "CC(C)(C)c1ccc(OCCNC(=S)Nc2ccccc2)cc1", "Potency": "inconclusive [inhibitor, partial curve]"}
{"smiles": "CC1(C(=O)Nc2ccc3c(c2)OCCO3)CN(S(C)(=O)=O)CC(=O)N1Cc1cccs1", "note": "(stereo not given)", "Potency": "inactive"}
{"smiles": "CCCCN(C)c1nc(-c2ccco2)c2c(c1C#N)CC(C)(C)OC2", "Potency": "inconclusive [inhibitor, partial curve]"}
{"smiles": "COc1cc2cc3c(N)c(C(=O)NCc4ccco4)sc3nc2cc1OC", "Potency": "inactive"}
{"smiles": "CC(NC(=O)CN(C)Cc1ccc(Br)cc1)c1ccccc1", "note": "(stereo not given)", "Potency": "inconclusive [inhibitor, partial curve]"}
{"smiles": "CCc1ccc(CN(C)C(=O)c2cc(COc3ccc(-n4cncn4)cc3)on2)cc1", "Potency": "inconclusive [inhibitor, single point]"}
{"smiles": "N#Cc1ccccc1S(=O)(=O)N1CCN(C(=O)C2CC(=O)N(c3ccc4c(c3)OCCO4)C2)CC1", "note": "(stereo not given)", "Potency": "inactive"}
{"smiles": "COc1ccc(C(NC(C)=O)c2cc(Cl)c3cccnc3c2O)cc1", "note": "(stereo not given)", "Potency": "inconclusive [inhibitor, partial curve]"}
{"smiles": "O=C(O)CN1C(=O)/C(=C\\c2ccccc2OCc2ccc(Cl)cc2Cl)SC1=S", "Potency": "inconclusive [inhibitor, partial curve]"}
{"smiles": "CC(C)(C)c1ccc(Cn2nnc3c(=O)[nH]c(C4CCN(C(=O)c5ccco5)CC4)nc32)cc1", "Potency": "inconclusive [inhibitor, partial curve]"}
{"smiles": "Cc1cc2ccccn2c1C(=O)c1ccccc1F", "Potency": "active: 44.7 µM"}
{"smiles": "S=c1[nH]nc(COc2ccc(Cl)cc2)n1Cc1ccco1", "Potency": "inconclusive [inhibitor, partial curve]"}
{"smiles": "CCCCc1cc(=O)oc2cc(O)cc(O)c12", "Potency": "inconclusive [inhibitor, partial curve]"}
{"smiles": "CC(C)C[C@H]1CNC(=O)C(=O)N1C[C@@H]1CCCN1C[C@H](Cc1ccccc1)N1C[C@H](Cc2ccccc2)N(CCc2ccccc2)C(=O)C1=O", "Potency": "inconclusive [inhibitor, single point]"}
{"smiles": "Cc1cc(C)cc(C(O)c2ncc(-c3ccccc3F)[nH]2)c1", "note": "(stereo not given)", "Potency": "inconclusive [inhibitor, partial curve, poor fit]"}
{"smiles": "CCC1=NN2C(=N)/C(=C/c3ccc(OS(=O)(=O)c4ccc(C)cc4)c(OC)c3)C(=O)N=C2S1", "Potency": "inconclusive [inhibitor, full curve, poor fit]"}
{"smiles": "Cc1ccc2cc(CN(Cc3ccco3)C(=O)c3ccco3)c3nnnn3c2c1", "Potency": "inconclusive [inhibitor, partial curve]"}
{"smiles": "CCCC1CC(C)(c2csc(Nc3ccc(OCC)cc3)n2)OC1=O", "note": "(stereo not given)", "Potency": "inconclusive [inhibitor, partial curve]"}
{"smiles": "COc1ccc(C2=Nc3ccc(C)cc3C(c3ccccc3)N2CC(=O)NN)cc1", "note": "(stereo not given)", "Potency": "inactive"}
{"smiles": "CCOc1ccc(/C(O)=C2/C(=O)C(=O)N(c3ccccn3)C2c2ccc(Cl)cc2)c(C)c1", "note": "(stereo not given)", "Potency": "inconclusive [inhibitor, partial curve]"}
{"smiles": "CC(=O)N1C(=O)/C(=C2\\SC(=S)N(c3c(C)n(C)n(-c4ccccc4)c3=O)C2=O)c2ccccc21", "Potency": "inactive"}
{"smiles": "CCOC1=NC(=C(c2ccccc2)c2ccccc2)OC1=O", "Potency": "inconclusive [inhibitor, single point]"}
{"smiles": "Nc1ncnc2c1ncn2[C@@H]1O[C@H](C(=O)N[C@H]2c3ccccc3C[C@H]2OC=O)[C@@H](O)[C@H]1O", "Potency": "inconclusive [inhibitor, single point]"}
{"smiles": "O=C(O)c1cc(Cl)ccc1-c1ccc(/C=C/c2cc(C(F)(F)F)[nH]c(=O)n2)o1", "Potency": "inactive"}
{"smiles": "COc1ccc(S(=O)(=O)Nc2c(C)nn(C)c2C)cc1Br", "Potency": "inconclusive [inhibitor, partial curve]"}
{"smiles": "O=C1CCC2S/C(=C/Nc3ccc(C(F)(F)F)cc3)C(=O)N12", "note": "(stereo not given)", "Potency": "inconclusive [inhibitor, single point]"}
{"smiles": "COC(=O)c1sccc1S(=O)(=O)Nc1ccc(Cl)cc1", "Potency": "inconclusive [inhibitor, single point]"}
{"smiles": "Cc1c(/C=C2\\SC(=Nc3cccc(C(=O)O)c3)NC2=O)c2ccccc2n1C", "Potency": "inconclusive [inhibitor, partial curve]"}
{"smiles": "COc1ccc2cc(S(=O)(=O)Nc3ccccn3)ccc2c1", "Potency": "inconclusive [inhibitor, single point]"}
{"smiles": "COc1cc(C)cc2c1OC(c1ccccc1)CC2=O", "note": "(stereo not given)", "Potency": "inconclusive [inhibitor, partial curve]"}
{"smiles": "COc1ccc(C(=O)NC(=S)NCCc2ccccc2)cc1", "Potency": "inactive"}
{"smiles": "Cn1cc([C@]2(O)C(=O)Nc3ccc(Br)cc32)c2ccccc21", "Potency": "active: 50.1 µM"}
{"smiles": "COc1ccccc1NC(=O)CC1C(=O)Nc2c1c(=O)n(C)c(=O)n2C", "note": "(stereo not given)", "Potency": "inconclusive [inhibitor, single point]"}
{"smiles": "COc1ccc(C(=O)c2cc3c(cc2[N+](=O)[O-])OCCO3)cc1", "Potency": "inconclusive [inhibitor, partial curve]"}
{"smiles": "CCCNC(=O)c1cc(C2CCCCN2C(=O)c2ccc(C(C)C)cc2)on1", "note": "(stereo not given)", "Potency": "inconclusive [inhibitor, partial curve]"}
{"smiles": "CC1=C(C#N)c2nc(N)c(C#N)c(C)c2/C1=C\\c1ccc(-c2ccccc2C(=O)O)o1", "Potency": "inconclusive [inhibitor, partial curve]"}
